About 64,000 (15%) of roughly 420,000 compounds were called active. This list was built around the results that the source calls inconclusive (neither active nor inactive); the mix of calls is not that of the screen. Calls come from the whole dose curve; as a rule, active = well fitted inhibition curve with a large enough effect; inconclusive = small, poorly fitted or top-dose-only effect; inactive = flat fitted curve, though single readings scatter. No potency is given beside an inconclusive call; the fits are too rough.
Assay: qHTS for Inhibitors of human tyrosyl-DNA phosphodiesterase 1 (TDP1): qHTS in cells in absence of CPT; note: nearly all actives have a fitted effect of over 55% in size
Settings: DT40 Tdp1-/- hTDP1 cells, no CPT, ATP luminescence, 48 h; activity change, negative = growth inhibition: at 46.2 µM (top of the series) unless noted
How it was run: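 Growth of hTDP1-complemented DT40 Tdp1-knockout cells is measured by ATP luminescence after at least 48 hr compound exposure at 37 °C, with DMSO substituting for the 20 nM CPT used in the parallel screen.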
% is set by controls: 0 for no effect and ±100 for the full control effect; potency is the fitted concentration of half-maximal effect; tags give direction and shape of the fitted curve.

| SMILES | Potency | activity change, negative = growth inhibition |
| --- | --- | --- |
| COc1ccc(NC(=O)c2cc(-c3ccccc3O)no2)cc1 | inactive | – |
| COc1ccc(-c2cc(C(=O)N/N=C(\C)c3cccnc3)c3cc(C)ccc3n2)cc1OC | active: 1.16 µM | – |
| NNS(=O)(=O)c1ccc2c(c1)Cc1cc(S(=O)(=O)NN)ccc1-2 | inactive | – |
| O=C(COc1ccc(Oc2ccccc2)cc1)NC1CCS(=O)(=O)C1 (stereo unspecified) | inconclusive [inhibitor, partial curve] | – |
| Cc1cccc(C)c1NC(=S)NC(=O)c1cccc(Cl)c1 | inconclusive [inhibitor, single point] | – |
| COCCNC(=O)C1(C)CCCN(Cc2cccc(F)c2)C1 (stereo unspecified) | inconclusive [inhibitor, partial curve] | – |
| COc1ccc2ccccc2c1CN1CCC2(CCC(CNC(=O)c3ccccc3)O2)CC1 (stereo unspecified) | inconclusive [inhibitor, single point] | – |
| COc1ccc(CNC(=O)C2CCN(C(=O)c3ccc(-c4ccccc4)cc3)CC2)cc1 | inconclusive [inhibitor, single point] | – |
| Cc1ccc(NC(=O)CN2C(=O)CCc3cc(S(=O)(=O)N4CCCCC4)ccc32)cc1N(C)C | inconclusive [inhibitor, partial curve] | – |
| O=C(NCCc1ccccc1)Nc1cccc(Cl)c1 | inconclusive [inhibitor, single point] | – |
| Cc1csc(NC(=O)CSc2nnc(-c3ccoc3C)n2Cc2ccco2)n1 | inconclusive [inhibitor, partial curve] | – |
| O=C(COC(=O)/C=C/c1ccc(Cl)c(Cl)c1)NC1CC1 | inconclusive [inhibitor, partial curve] | – |
| C#Cc1ccc([C@@H]2C=C(C(=O)N3CCN(Cc4ccc5c(c4)OCO5)CC3)O[C@H](OCC)[C@H]2CCCO)cc1 | inconclusive [inhibitor, single point] | – |
| CCOC(=O)c1sc2ccccc2c1S(=O)(=O)N1CCN(c2ccccc2)CC1 | inconclusive [inhibitor, single point] | – |
| Cc1ccc2oc(Nc3nc(-c4ccccc4)cc(=O)[nH]3)nc2c1 | active: 4.61 µM | – |
| O=C(COC(=O)c1cccc(S(=O)(=O)N2CCOCC2)c1)c1ccccc1 | inconclusive [inhibitor, full curve, poor fit] | – |
| O=C(NCC1COc2ccccc2O1)c1cc(S(=O)(=O)N2CCOCC2)ccc1F (stereo unspecified) | inactive | – |
| CC12CCCC(=O)C1CCC(=Cc1ccco1)C2=O (stereo unspecified) | inconclusive [inhibitor, single point] | – |
| COCCCn1c(O)c(/C=C2\N=C(C#N)C(=Nc3ccc(C)cc3)O2)sc1=S | active: 3.26 µM | – |
| Cc1cc(C)c(OCCOCCN(C)C)c(Br)c1 | inconclusive [inhibitor, single point] | – |
| O=C(CN1CCOCC1)Nc1ncc(Cc2cccc(Cl)c2)s1 | inconclusive [inhibitor, single point] | – |
| O=c1c([N+](=O)[O-])cccn1Cc1ccc(F)cc1Cl | active: 20.6 µM | – |
| Cc1cccc(C)c1OCc1n[nH]c(=S)o1 | inconclusive [inhibitor, single point] | – |
| CN1C(=O)c2cccc3c(N)ccc(c23)C1=O | inconclusive [inhibitor, single point] | – |

| SMILES | Potency | activity change, negative = growth inhibition |
| --- | --- | --- |
| Cc1c(C(=O)NCc2cccc(C(F)(F)F)c2)sc(=O)n1Cc1ccc(F)cc1 | inconclusive [inhibitor, single point] | – |
| CCOc1ccc(NC(=O)CNS(=O)(=O)c2ccc(Br)s2)cc1 | inconclusive [inhibitor, single point] | – |
| CCOC(=O)c1cnc2c(C(F)(F)F)cccc2c1Nc1cccc(C(=O)OC)c1 | active: 14.6 µM | – |
| O=c1c2ccccc2oc2cc(NCCCn3ccnc3)ccc12 | inconclusive [inhibitor, single point] | – |
| O=C(c1cc(-c2ccccc2)on1)N1CCN(Cc2ccc3c(c2)OCO3)CC1 | inactive | – |
| Cc1onc(-c2ccccc2Cl)c1C(=O)N(C)C1CCCCC1 | active: 3.66 µM | – |
| Nc1ccc(C(=O)OCC(=O)N2CCc3ccccc3C2)cc1[N+](=O)[O-] | inconclusive [inhibitor, partial curve] | – |
| COc1ccc(C(C(=O)Nc2ccc(C(C)C)cc2)N(Cc2ccco2)C(=O)CC2NC(=O)NC2=O)cc1 (stereo unspecified) | inconclusive [inhibitor, single point] | – |
| COc1ccc(-c2noc(CSc3nnc(-c4ccc(Cl)cc4)n3C)n2)cc1OC | active: 16.4 µM | – |
| O=C(CN1CCN(C(=O)N2CCOCC2)CC1)Nc1cc(Cl)ccc1Cl | active: 13 µM | – |
| COc1cccc(/C=N/Nc2ccc(Cl)nn2)c1OC | – | inconclusive: -35.1% [inhibitor] |
| CCC1(C2CCN(C(=O)c3ccc(C)c(C)c3)CC2)NC(=O)N(CCc2scnc2C)C1=O (stereo unspecified) | inactive | – |
| Cc1ccc(C(C)C)c(OC/C(O)=C(\C#N)c2nc3ccccc3[nH]2)c1 | inconclusive [inhibitor, single point] | – |
| COc1ccc(OC)c(N(CC(=O)NC2CCCCCC2)S(=O)(=O)c2ccc(C)cc2)c1 | active: 23.1 µM | – |
| CC(C)CCNC(=O)C1CCCCN1S(=O)(=O)c1ccc(F)cc1 (stereo unspecified) | inconclusive [inhibitor, single point] | – |
| COC(C[C@H]1O[C@@H]1C(=O)[C@H](C)OCc1ccccc1)OC | inactive | – |
| CCOC(=O)c1nnc(-c2ccc(C)cc2)nc1Oc1ccccc1Cl | inconclusive [inhibitor, single point] | – |
| COc1ccccc1C(CNC(=O)c1ccc(NS(=O)(=O)c2ccc(F)c(C)c2)cc1)N1CCCC1 (stereo unspecified) | inconclusive [inhibitor, single point] | – |
| CCOC(=O)c1c(-c2ccc(OC)cc2)csc1NC(=O)CCN1CCOCC1 | active: 18.4 µM | – |
| O=C(O)c1ccc(S(=O)(=O)N2CCCC2)cc1 | inactive | – |
| CC(C)(C)c1ccc(C(=O)NNc2cc(Cl)cc(Cl)c2)cc1 | inconclusive [inhibitor, single point] | – |
| COc1ccc(-n2c(O)c(/C=N/Nc3nc(C)cc(C)n3)c3ccccc3c2=O)cc1OC | inconclusive [inhibitor, single point] | – |
| CC(=Nc1ccccc1O)c1sc2ccccc2c1O | inconclusive [inhibitor, single point] | – |
| Cc1ccc(-c2csc(NC(=O)c3cccc(N4C(=O)CCC4=O)c3)n2)o1 | inconclusive [inhibitor, single point] | – |

| SMILES | Potency | activity change, negative = growth inhibition |
| --- | --- | --- |
| O=c1[nH]c(NCCO)nc2c1C1(CCCCC1)Cc1ccccc1-2 | inconclusive [inhibitor, single point] | – |
| CCOC(=O)N1CCN(C(=O)c2cc(COc3cccc(C(F)(F)F)c3)on2)CC1 | active: 16.4 µM | – |
| Cc1nnc(NC(=O)/C=C/c2ccco2)s1 | inactive | – |
| Cc1nn(C)c(C)c1NC(=O)CSc1nc(C2CC2)nc2c1cnn2-c1ccccc1 | inconclusive [inhibitor, full curve] | – |
| Cc1ccc(C)c(C(=O)c2ccccc2NC(=O)c2ccccn2)c1 | active: 9.2 µM | – |
| COc1ccc(NC(=O)c2nc(SC)ncc2Cl)cc1 | inactive | – |
| [O-]c1c[n+](-c2ccccc2)no1 | inconclusive [inhibitor, full curve] | – |
| C[C@H](NC(=O)c1ccco1)C(=O)N1CCCC1 | inactive | – |
| CCOc1nc(NCCN2CCOCC2)nc(Nc2ccc([N+](=O)[O-])cc2)n1 | – | inconclusive: -36.1% [inhibitor] |
| CC(=O)Nc1cccc(-c2ccnc3c2CC(C(=O)Nc2cccnc2)O3)c1 (stereo unspecified) | – | inconclusive: -30.2% [inhibitor] |
| Cc1ccc(NC(=O)CN(C)C(=O)c2ccc(Br)o2)cc1 | inactive | – |
| O=C1C2CCCCN2C(=O)N1CCCCN1CCN(c2cccc(C(F)(F)F)c2)CC1 (stereo unspecified) | inconclusive [inhibitor, single point] | – |
| CN1OC[C@@H]2CN(Cc3ccc4c(c3)OCO4)[C@H](c3ccc(N4CCCCC4)cc3)C[C@@H]21 | inconclusive [inhibitor, single point] | – |
| O=C(NC1CCCC1)c1ccc2c(c1)N(Cc1ccccc1Cl)C(=O)c1ccccc1S2 | inconclusive [inhibitor, partial curve] | – |
| CCCN(CCC)c1ccc(/C=C/c2sc3ccccc3[n+]2CCCCI)cc1 | active: 0.316 µM | – |
| CCOC(=O)c1cc(-c2csc(-c3ccc(C(C)(C)C)cc3)n2)on1 | inconclusive [inhibitor, partial curve] | – |
| C/C(N)=C(/C#N)C(=O)CSc1nnc(COc2ccccc2Cl)o1 | inconclusive [inhibitor, single point] | – |
| Cc1occc1C(=O)N1CCC2(CCCN(Cc3ccc(F)c(F)c3)C2)C1 (stereo unspecified) | active: 16.4 µM | – |
| COCCn1c(=O)[nH]c(=O)c2cc(C(=O)c3cc(Cl)ccc3O)cnc21 | inconclusive [inhibitor, single point] | – |
| COc1ccccc1Nc1c2c(nc3ccc(NC(=O)c4cccc(F)c4)cc13)CCCC2 | active: 2.59 µM | – |
| CC(C)(C)CC(C)(C)c1ccc(OCCO)cc1 | active: 10.6 µM | – |
| N#Cc1cc(N)c(Nc2ccccc2)cc1C#N | inconclusive [inhibitor, single point] | – |
| O=C(CCS(=O)(=O)c1ccc(Cl)cc1)Nc1nccs1 | inconclusive [inhibitor, single point] | – |

Source: PubChem BioAssay AID686978 (National Center for Advancing Translational Sciences (NCATS), 2013)
